The RNAGym collection of RNA variant scans (doi:10.7554/elife.90254)
The source gives no read counts; variants with many changes may rest on few reads.

B1: LINE1-mini (parent)
chain: GGCAGAGCUCAACACAGCGUGGCAAAGUGGCUGUGGCUAGACUGCC

Variants of: B1
Experiment: self-cleavage, relative activity (ratio to wild type); higher = more cleavage; in vitro, sequencing; the parent is a self-cleaving ribozyme

Variant	self-cleavage
GGCAUCGCUCAGCACAGCGUGGCAAAGUGGCUGUGGCUAGACUGCC [G5U A6C A12G]	0.04
GGCAGAGCUCAACACGGCGUGGCGAAGUGGCAGUGGCUAGACUGCC [A16G A24G U32A]	0.02
GCCAGACCUGAACACAGGGUGGCAAAGUAGCUGCAGCUAGUCUGCC [G2C G7C C10G C18G G29A U34C G35A A41U]	0.01
GCCAGAGCUCAACACUGCGUCGCGAAGUGGCUGUGACUAGACUGCC [G2C A16U G21C A24G G36A]	0.04
GGCAGAGCUCAACGCAGCGUUGCAAAGAGGCUGUGGCAAGGCUGCC [A14G G21U U28A U38A A41G]	0.04
GGCAGAGCGCAACACAGCGUGGCAAAGUGGAUGUGGCUAGAUUGAC [U9G C31A C42U C45A]	0.02
GGCAGAGCUCAACACAGCGUGGCAAAGUGACUGUGGCUGGACUGUC [G30A A39G C45U]	0.03
AACAGAGCUCAACACAGCGUGGCAAAGUGGCUGUGGUUAGACUGGC [G1A G2A C37U C45G]	0.17
GGCAAAGCUCAACGCAGCGUGGCAAGGUGGCUGUGGCUAGACUGCC [G5A A14G A26G]	0.05
GGCAAAGCUGAACACAGCGUGACAAAGUGGCUGUGGCUAGACUGCC [G5A C10G G22A]	0.03
UGCAGAGCUCAGCACAGUGUGGCGUAGUGGCUGUGGGUAGUCUGCC [G1U A12G C18U A24G A25U C37G A41U]	0.02
GGCAGAGCUGAACAUAGCGUGGCAAAGUGGCCGUGGCUAGACUGCC [C10G C15U U32C]	0.06
GGCAGAGCUCAAAACAGCUUGGCAAAGUGGGUCUGGCUAGAAUGCA [C13A G19U C31G G33C C42A C46A]	0.02
GCCAGAGCCCUAUACAGCGUGGCAAAGUGGCUGUGGCUAGACUGCC [G2C U9C A11U C13U]	0.08
GGCAGAGCUUAACACAGCGUGGCAAAUUGGCUGUGCCUAGCCUGCC [C10U G27U G36C A41C]	0.05
GGCAGAGCUCAACCCAGCCUGGCCAAGUAGCUGUGAGUAGACUGCC [A14C G19C A24C G29A G36A C37G]	0.05
GGCCGAGCUCAACACAUCGUGCCAAAGUGGCUGUGGCUAGACUGCC [A4C G17U G22C]	0.05
GGCAGUGCUCAACACAGAGUGGUAAAGCCGCUGUGGCUAGACUGCC [A6U C18A C23U U28C G29C]	0.37
GGAAGAGCUCAACAGAGCGUGGCAAAGUGUCUGUGGCUAGACUCCC [C3A C15G G30U G44C]	0.06

Variant	self-cleavage
GGCAGAGGUCAACACAGCGUGGUAAAGUGACUAUGGCUAGCCUGCC [C8G C23U G30A G33A A41C]	0.07
GGAAGAGCGCAAAACAGCGCGGCAAAGUGGCUGAGGCUAGACUGCC [C3A U9G C13A U20C U34A]	0.12
GGCAGAGCUCAACACAGAGUGGGAAACUGGCUGUGGGUAGACUGCC [C18A C23G G27C C37G]	0
GGCUGAGCUCAACACAGCAUAGCAAAGUGGCUGUGGCUAGACUGCA [A4U G19A G21A C46A]	0.3
GGCAGAGCUCAACACAGCGUGGUACAGUGGCUGUGACUAGACUGCC [C23U A25C G36A]	0.08
GGCAGGGCUCAACACAGCGUGGCAAAGCUGCUGUGGCUAAAAUGCC [A6G U28C G29U G40A C42A]	0.03
GGCAGAGGUCAACAGAGCGUGGCAAAGUGGCUGUGGCUAGACUGAG [C8G C15G C45A C46G]	0.04
GGCAGAGCUCAACACAGCGUGGCAAGCUGGCUGUGGCUAGACUGCA [A26G G27C C46A]	0.62
GGCAUAGCGCAACACAGUGUGGCAAAGAGGCUGUGGCUAGACUGCC [G5U U9G C18U U28A]	0.06
GGCAGAGCUCAACACAGCGUGGCAAAGUGCAUGUGGCCAGACUGCC [G30C C31A U38C]	0.07
GACAGAGCUUAAUACAGCGUGGCAAAGUUGCUGUGGCUAGACUGCC [G2A C10U C13U G29U]	0.13
GGCAGAGCUCAAGACAGCGUGCCAAAGUGGCUGUGGCUAGACCGCC [C13G G22C U43C]	0.01
GGCAGAGCUCAACACAGCGUUGCAAAGUUGUUCUGUCUAGACUCCC [G21U G29U C31U G33C G36U G44C]	0.03
GGCAGAGUUCAAAACAGCGUGGCAAAGUGGUUGUGGCUAGACUGCC [C8U C13A C31U]	0.23
GGCAGAGCUCACCACAGCGUGGCAAAGUGGAUGUCGCUAGACUGCC [A12C C31A G35C]	0
GGCAGAGCUCAACACAGAGUGGCAAAGUGGCUGUGGUUACACUCCC [C18A C37U G40C G44C]	0.1
GACAGGGCUCAACACAGCGUGGCAAAGUGGCUGUGGCAAGACUGCC [G2A A6G U38A]	0.05
GGCCGAGCUCAACACAGCUUGGCAAAGUGGCUGUGGGUAGACUGCU [A4C G19U C37G C46U]	0.02
GAGAGAGCUCAACACAGCUUGGCAAAGUGGCUGUGGCUCGCCUGCC [G2A C3G G19U A39C A41C]	0.1

Variant	self-cleavage
GGCAAAGCUCAACACAGCGUGGCAGAAUGGCUGUGGCUACACUGCC [G5A A25G G27A G40C]	0.11
AGCAGAGUUCAACAGAACGUGGCAAAGUGGCUGUGGCUAGACUGCC [G1A C8U C15G G17A]	0.34
GGCAGACCUCAACACAGCGUGGCAAAGUGGCUGUGGCUAGUCGGCC [G7C A41U U43G]	0.51
GGCAGGGCUCAACACACCGUGGCAAGGUGGCUGUGGCUAAACUGCC [A6G G17C A26G G40A]	0
GGCAUAGCUCAACACAGCGUGGCUAAGUGGCUGUGGCUAAACUGCC [G5U A24U G40A]	0.06
GGCAGAGCUCAACAGAGCGUGGAAAAGUGGGUGUGGCUAUAGUGCC [C15G C23A C31G G40U C42G]	0.03
GGUAGAGCUCAACACAGCGUUGCAAAGUGGCUGUGGCUAGAGGGCC [C3U G21U C42G U43G]	0.07
GGCAGAGCUCAAUACGGCGUGGCAGAGUGGCUGUGGCUAGACUGCC [C13U A16G A25G]	0.02
GGCAGAUCUCAACACAGCGUGGCACAGUGGCUGUGGCGAGACUGCC [G7U A25C U38G]	0
GGAAGAGCUCAACACAGCGUGUCAAAGUGGCUGUGGCUCGACAGCC [C3A G22U A39C U43A]	0.04
GGCAGAGCUCAACACAGCGUGACAAAGUUGCUGUGGCUAGACUGCA [G22A G29U C46A]	0.33
GGCUGAGCUCAACAGCGCGUGGCAAAGUGGCUGUGGCUAGACUGCC [A4U C15G A16C]	0.28
GGCAGAGCUAAUCAUAGCGUGACAAAGUGGCUGUGGCUAGACUGCC [C10A A12U C15U G22A]	0.01
GGCAGAGCUCAACACAGCGAGGCAUACUGGCUGUGGCUAGACUCCC [U20A A25U G27C G44C]	0.12
GGCAGAGCUUAACAUAGAGUGGCAAAGUGGCUGUGGCUAGACUGCC [C10U C15U C18A]	0.07
GGCAGAGAUCAACACGGCGUGGCAAAGUCGCUGUGGCUAGAUUGCC [C8A A16G G29C C42U]	0.01
GACAGAGCUAAACACAGCGUGGCAAAGUGGCUGUGUCUAGACCGCC [G2A C10A G36U U43C]	0.03
GGCAGAGCUCAACACUGCCUGGCAGAGUGGCUCUGGCUAGCCUGAC [A16U G19C A25G G33C A41C C45A]	0.01
